# PubChem BioAssay AID686978 (National Center for Advancing Translational Sciences (NCATS), 2013)
# Screen size: about 420,000 compounds; about 64,000 (15%) were called active. Inconclusive means that the source gave no clear call. Such entries were picked first, then a sample of the others. The call rests on the fitted dose curve; in most records, active means well fitted inhibition curve with a large enough effect; inconclusive means small, poorly fitted or top-dose-only effect; inactive means flat fitted curve, though single readings scatter. Potencies of inconclusive entries are left out as doubtful fits.
# Assay: qHTS for Inhibitors of human tyrosyl-DNA phosphodiesterase 1 (TDP1): qHTS in cells in absence of CPT; further: nearly all actives have a fitted effect of over 55% in size
# Conditions: DT40 Tdp1-/- hTDP1 cells, no CPT, ATP luminescence, 48 h; activity change, negative = growth inhibition: at 46.2 µM (top of the series) unless noted
# In short: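 DT40 Tdp1-/-;hTDP1 cells, no CPT (DMSO vehicle only), 400 cells/well; compounds pin-transferred; ≥48 hr, 37 °C; CellTiter-Glo 30 min RT dark, luminescence read.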
# On the % scale 0 is the no-effect control and ±100 the full control effect; potency means the concentration at half of the fitted maximal effect; tags describe the fitted curve by direction and shape.
SMILES,"activity change, negative = growth inhibition",Potency
Nc1c(C(=O)N2CCCC2)sc2nc(-c3ccccc3)ccc12,inactive: -19.4%,–
O=C(NCc1ccccc1)c1csc(-c2cccnc2)n1,–,active: 5.8 µM
FC(F)(F)c1nc2nc(Cl)c(Cl)nc2n1CCCN1CCOCC1,–,"inconclusive [inhibitor, partial curve, poor fit]"
CCc1ccc(S(=O)(=O)Nc2ccc(-c3ccc4nncn4n3)cc2)s1,–,"inconclusive [inhibitor, single point]"
COc1ccc(C(C(=O)NC(C)(C)C)n2c(=O)c(-c3cc4ccccc4[nH]3)nc3ccccc32)cc1 (configuration not stated),–,"inconclusive [inhibitor, single point]"
CC1=C(C(=O)N2CCCCCC2)CC(CC(=O)NCCc2ccccn2)C(=O)N1CCC1=CCCCC1 (configuration not stated),–,"inconclusive [inhibitor, single point]"
C=CCNCC(=O)Nc1sc2c(c1C(=O)Nc1ccc(OC)cc1OC)CCC2,–,"inconclusive [inhibitor, single point]"
O=C(Nc1ccc(C(=O)N2CCCCC2)cc1)c1cccs1,–,"inconclusive [inhibitor, single point]"
Cc1ccc(S(=O)(=O)N2CCN(C(=O)COC(=O)/C=C/c3ccc(Cl)cc3)CC2)c(C)c1,–,"inconclusive [inhibitor, partial curve]"
COc1ccc(C)cc1NC(=O)c1cc(-c2ccccc2)nc2c1cnn2C(C)C,–,"inconclusive [inhibitor, single point]"
Cc1cc(O)c2c(CN3CCN(Cc4ccccc4)CC3)cc(=O)oc2c1,–,active: 14.6 µM
COc1ccc(S(=O)(=O)N2CCCCC2)cc1NC(=S)Nc1cccc(Cl)c1C,–,"inconclusive [inhibitor, single point]"
NS(=O)(=O)c1ccc(NC(=O)CN2CCCc3ccccc32)cc1,inactive: -24.2%,–
COc1ccc(S(=O)(=O)n2nc(-c3ccco3)nc2NCc2ccc(N(C)C)cc2)cc1,–,"inconclusive [inhibitor, single point]"
CN(CC(=O)Nc1ccccc1Br)C(=O)c1ccccc1Cc1ccccc1,–,"inconclusive [inhibitor, full curve, poor fit]"
CN(C)C(=O)NC(Nc1cccc([N+](=O)[O-])c1)C(Cl)(Cl)Cl (configuration not stated),–,"inconclusive [inhibitor, single point]"
Cc1cc(=O)oc2c(C)c(OCC(=O)NCCCN3CCOCC3)ccc12,inactive: 4.55%,–
Cc1cccc(NC(=S)Nc2ccccn2)c1C,–,"inconclusive [inhibitor, full curve]"
Cc1cc(NC(=O)c2ccco2)c(=O)n(Cc2cccc(C(F)(F)F)c2)c1,inactive: -18.8%,–
Cc1nn2c(nc(N3CCCCC3)c3ccccc32)c1C=O,–,"inconclusive [inhibitor, single point]"
Cc1ccc(CNC(=O)N2CCC(CN3CCC(C)CC3)CC2)cc1,inactive: -14.8%,–
CNC(=S)N/N=C/c1c(C)cccc1Cl,–,"inconclusive [inhibitor, single point]"
O=C(NCCn1ccc2ccccc21)c1cccc([N+](=O)[O-])c1,–,active: 23.1 µM
O=C(CNc1ccc(C(F)(F)F)cc1)Nc1cccc(S(=O)(=O)N2CCCC2)c1,–,"inconclusive [inhibitor, single point]"
Cc1cc(SCc2cccc(Cl)c2)nc(=O)[nH]1,inactive: 5.55%,–
Fc1cccc(Nc2c3c(nc4ccccc24)CCC3)c1,–,active: 25.9 µM

SMILES,"activity change, negative = growth inhibition",Potency
COc1ccc(N2CCN(C(=O)CN3C(=O)NC(c4ccc(OC)cc4)(c4ccc(OC)cc4)C3=O)CC2)cc1,–,"inconclusive [inhibitor, single point]"
Cc1cccnc1NC(=O)c1c(O)c2ccccc2n(C)c1=O,–,active: 23.1 µM
CC1CC(C)(C)OC(C[N+]2(C)CCCCC2)O1 (configuration not stated),inactive: -25.9%,–
CN(C)CC(O)COc1ccc(C(C)(C)c2ccc(OCC(O)CN(C)C)cc2)cc1 (configuration not stated),–,active: 17.8 µM
CN(CC(=O)NC1CC1)S(=O)(=O)c1ccc(F)cc1,inactive: 2.27%,–
CCOc1ccc(Nc2oc(-c3ccco3)nc2C#N)cc1,–,"inconclusive [inhibitor, single point]"
S=c1[nH]nc(-c2ccc(Cl)cc2)n1-c1ccc2c(c1)OCCO2,–,"inconclusive [inhibitor, single point]"
CC1CCCC(NC(=O)CSc2nncs2)C1C (configuration not stated),–,"inconclusive [inhibitor, single point]"
CC1(C)CC(=O)C(C=NCCN2CCN(C(=O)CCl)CC2)=C(O)C1,–,active: 10.3 µM
O=C(Nc1ccc(S(=O)(=O)N2CCCC2)cc1)C1COc2ccccc2O1 (configuration not stated),inconclusive: -34.5% [inhibitor],–
O=C(O)c1cc(-c2ccc(Cl)cc2)n(-c2cccc(Cl)c2)n1,inactive: -20%,–
Cc1cc(N2CCOCC2)c2c(N)c(Br)cc(C)c2n1,–,active: 3.26 µM
Cc1ccc(CNC(=O)C(=O)NCC2OCCN2C(=O)c2ccc(Cl)cc2)cc1 (configuration not stated),–,"inconclusive [inhibitor, single point]"
COc1ccc(-n2nnnc2CNC(=O)C(=O)c2c[nH]c3ccccc23)cc1,–,"inconclusive [inhibitor, single point]"
CC(=O)c1ccc(OC(=O)c2nc(-c3ccccc3)oc2C)cc1,inactive: -6.43%,–
N#Cc1c(-c2ccccc2)nc(SCC(=O)Nc2ccc(OC(F)(F)Cl)cc2)[nH]c1=O,inactive: -10.7%,–
C=COCCn1c(=N)n(CCC)c2ccccc21,–,"inconclusive [inhibitor, partial curve]"
CC(C)CC(=O)Nc1nnc(SCC(=O)Nc2nccs2)s1,inactive: 0.32%,–
Cc1ccc2scc(N3CCc4ccccc4C3)c(=O)c2c1,–,"inconclusive [inhibitor, single point]"
CCOC(=O)c1cccc(NC(=O)c2ccco2)c1,inactive: -7.71%,–
Cc1ccccc1OC(=O)CCC(=O)OCCCC(F)(F)C(F)(F)F,inactive: 0.14%,–
CN(C)CCNC(=O)COc1ccc(C23CC4CC(CC(C4)C2)C3)cc1,–,active: 20.6 µM
Cn1cccc1-c1nc2ccc(NC(=O)c3cccs3)cc2[nH]1,–,active: 15.8 µM
CCc1ccccc1NC(c1nnc(-c2cccc(F)c2)o1)c1ccc(F)cc1Cl (configuration not stated),inactive: -27%,–
Cc1ccc(NS(=O)(=O)c2ccccc2F)cc1S(=O)(=O)N1CCCCCC1,inactive: -5.53%,–
CCc1c(C(=O)Nc2ccccc2)c(C)[nH]c(=S)c1C#N,inactive: -7.24%,–

SMILES,"activity change, negative = growth inhibition",Potency
C=CCN1C=C2C(=O)C(C)(OC(=O)C3CCCC3)C(=O)C=C2C=C1c1ccsc1 (configuration not stated),–,"inconclusive [inhibitor, single point]"
COc1cc2c(cc1NC(=O)CN(C)Cc1ccc(OC)c(OC)c1)oc1ccccc12,–,active: 16.4 µM
COc1ccccc1CC(=O)N1CCN(c2ccccc2)CC1,inactive: 2.57%,–
CC(=O)NC(c1ccc(C(C)C)cc1)c1c(O)ccc2ccccc12 (configuration not stated),–,"inconclusive [inhibitor, single point]"
O=C(Nc1nc2ccc3ccccc3c2s1)c1ccc(N2CCCCC2)c([N+](=O)[O-])c1,inconclusive: -31.8% [inhibitor],–
Cc1nc(SCc2ccc(F)cc2)c2oc3ccccc3c2n1,inactive: -8.16%,–
CCc1nc2sc3ccccc3c(=O)c2c(=O)n1CCOC,–,"inconclusive [inhibitor, single point]"
NNC(=O)CCn1c2ccccc2c2ccccc21,–,"inconclusive [inhibitor, single point]"
Cc1sc2nc(CSc3ccccc3)nc(N3CCC(C(N)=O)CC3)c2c1C,–,active: 20.6 µM
COc1ccccc1CN(CC(=O)NCc1ccco1)C(=O)CNS(=O)(=O)c1ccc(C)cc1,inactive: -18.4%,–
CN(Cc1cccc(F)c1)C(=O)c1cc(S(=O)(=O)N2CCOCC2)ccc1N1CCCC1,–,"inconclusive [inhibitor, single point]"
COc1cccc(NC(=O)c2cc(-c3ccccn3)nc3ccccc23)c1,–,"inconclusive [inhibitor, single point]"
O=C(CS(=O)(=O)c1ccccc1)Nc1nc(-c2ccc(F)cc2)cs1,inconclusive: -35% [inhibitor],–
S=C(Nc1ccc(Oc2ccccc2)cc1)NC1CCCC1,–,"inconclusive [inhibitor, single point]"
CC1CCCCN1S(=O)(=O)c1ccc(C(=O)Nc2nnc(-c3ccncc3)o2)cc1 (configuration not stated),–,"inconclusive [inhibitor, single point]"
O=c1[nH]ncc(N2CCN(Cc3ccccc3)CC2)c1Cl,inactive: -25.2%,–
Cc1cc(NC(=O)Nc2ccc(Cl)c(Cl)c2)no1,–,"inconclusive [inhibitor, partial curve]"
COc1ccc(-c2nc(C#N)c(NC(C)C)o2)cc1,inactive: -9.78%,–
COc1cccc(C(=O)N2CCN(CCc3ccncc3)CC2)c1,inactive: -6.07%,–
O=C(CSc1nnc(SCc2ccccc2)s1)NNC(=S)Nc1ccccc1,–,"inconclusive [inhibitor, single point]"
Cn1c(=O)c2c(-c3cccc(Br)c3)n(C(C)(C)CO)cc2n(C)c1=O,–,"inconclusive [inhibitor, single point]"
CCOc1ccccc1-n1c(SCC(N)=O)nnc1-c1ccco1,inactive: 12.1%,–
CC(=O)c1cccc(NS(=O)(=O)N2CCCCC2)c1,–,"inconclusive [inhibitor, partial curve, poor fit]"
CCN(c1ccccc1)S(=O)(=O)c1ccc(Oc2ccc(C(C)=O)cc2OC)nc1,–,active: 16.4 µM
CCOC(=O)[C@]12CCC=C1N(CCC1=CCCCC1)C(=O)[C@H](CC(=O)N1CCSCC1)C2,–,"inconclusive [inhibitor, single point]"
